In the supplement of paper PMC9446081:
In all, about 39,000 compounds went through this assay and about 220 (0.56%) showed activity. The list shows a part of the results.

Test system: Escherichia coli K-12 BW25113
Test: relative growth (OD600 normalised to plate interquartile mean) (fraction); higher = less growth inhibition, active = 0.2 or less
Details: 50 µM; LB; incubation time: overnight (16-24 h)
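Further: static incubation at 37 °C against the wild-type strain, values averaged over two biological replicates.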

| SMILES | relative growth |
| --- | --- |
| C[C@@H]1CN([C@@H](C)CO)C(=O)c2cc(N(C)C)ccc2O[C@@H](C)CCCCO[C@H]1CN(C)C(=O)CCCN(C)C | inactive: 1.01 |
| C[C@H](CO)N1C[C@H](C)[C@H](CN(C)S(=O)(=O)c2cn(C)cn2)Oc2ccc(NS(=O)(=O)c3cn(C)cn3)cc2CC1=O | inactive: 0.993 |
| C[C@H](CO)N1C[C@H](C)[C@H](CN(C)Cc2ccc3c(c2)OCO3)OCc2ccccc2-c2c(n(C)c3ccccc23)C1=O | inactive: 0.973 |
| C[C@@H]1CN([C@@H](C)CO)C(=O)c2cc(NC(=O)Cc3ccccc3)ccc2O[C@H]1CN(C)Cc1ccc(Cl)c(Cl)c1 | inactive: 1.01 |
| C[C@@H]1CN([C@H](C)CO)C(=O)c2cc(C#CC3(O)CCCC3)cnc2O[C@@H]1CN(C)C(=O)C1CCCCC1 | inactive: 1.02 |
| COc1ccc(NC(=O)N(C)C[C@H]2Oc3c(NS(=O)(=O)c4c(C)noc4C)cccc3C(=O)N([C@@H](C)CO)C[C@H]2C)cc1 | inactive: 0.987 |
| C=CCN1C(=O)[C@]2(O[C@H](CCn3cc([C@H](O)c4ccccc4)nn3)[C@@H]([Si](C)(C)c3ccc(OC)cc3)[C@@H]2C)c2cc(N3C(=O)c4cccc5cccc3c45)ccc21 | inactive: 1.01 |
| COc1ccc(S(=O)(=O)N(C)C[C@@H]2Oc3cc(C#CC4CC4)ccc3S(=O)(=O)N([C@H](C)CO)C[C@@H]2C)cc1 | inactive: 1.04 |
| C[C@@H]1CN([C@H](C)CO)S(=O)(=O)c2ccc(C#CCN(C)C)cc2O[C@@H]1CN(C)Cc1ccccc1F | inactive: 1.03 |
| CC(=O)n1cc([C@@H]2C=C(C(=O)NCc3ccccc3)O[C@H](OCc3ccc(CO)cc3)C2)c2ccccc21 | inactive: 1.01 |
| C[C@H](CO)N1C[C@H](C)[C@@H](CN(C)Cc2ccc3c(c2)OCO3)Oc2c(NC(=O)Nc3cccc4ccccc34)cccc2C1=O | inactive: 1.01 |
| C[C@@H]1CCCCO[C@H](CN(C)C(=O)Nc2ccc(F)cc2)[C@H](C)CN([C@H](C)CO)C(=O)c2cc(NC(=O)c3ccncc3)ccc2O1 | inactive: 0.988 |
| COc1ccccc1NC(=O)N(C)C[C@H]1OCc2ccccc2-c2c(n(C)c3ccccc23)C(=O)N([C@@H](C)CO)C[C@@H]1C | inactive: 1.01 |
| C[C@@H]1CN([C@H](C)CO)C(=O)c2cc(C#Cc3ccncc3)cnc2O[C@@H]1CN(C)S(=O)(=O)c1ccccc1F | inactive: 0.995 |
| CNCC1CCOCC1 | inactive: 0.959 |
| OC[C@H]1O[C@@](CO)(O[C@H]2O[C@H](CO)[C@@H](O)[C@H](O)[C@H]2O)[C@@H](O)[C@@H]1O | inactive: 0.983 |
| C[C@H](CO)N1C[C@H](C)[C@H](CN(C)Cc2ccc(Oc3ccccc3)cc2)Oc2ncc(-c3cccnc3)cc2C1=O | inactive: 1.03 |
| COc1cc2c(cc1OC)CN(CCc1ccc(NC(=O)c3cc(OC)c(OC)cc3NC(=O)c3cnc4ccccc4c3)cc1)CC2 | inactive: 0.965 |
| O=C1CN(S(=O)(=O)Cc2ccccc2)C[C@H]2[C@H](c3ccc(C#Cc4cccc(F)c4)cc3)[C@@H](CO)N12 | inactive: 1.01 |
| C[C@@H]1CN([C@H](C)CO)C(=O)c2cccc(NC(=O)CCCCCC(=O)Nc3ccccc3N)c2O[C@@H]1CN(C)Cc1ccc(C(F)(F)F)cc1 | inactive: 1.02 |

| SMILES | relative growth |
| --- | --- |
| Cc1ccccc1C(=O)Nc1ccc(C(=O)N2CCCC(O)c3cc(Cl)ccc32)c(C)c1 (centres undefined) | inactive: 0.823 |
| C[C@@H]1CN([C@@H](C)CO)C(=O)c2cc(NC(=O)Cc3ccccc3)ccc2O[C@@H](C)CCCCO[C@H]1CN(C)C(=O)CCC(F)(F)F | inactive: 0.969 |
| CC(C)NC(=O)Nc1cccc2c1O[C@@H](CN(C)Cc1ccc3c(c1)OCO3)[C@@H](C)CN([C@H](C)CO)C2=O | inactive: 0.939 |
| COc1cccc(S(=O)(=O)N(C)C[C@H]2OCc3cnnn3CCCC(=O)N([C@H](C)CO)C[C@H]2C)c1 | inactive: 1.04 |
| Cc1ccc(S(=O)(=O)Nc2ccc3c(c2)C(=O)N([C@@H](C)CO)C[C@H](C)[C@H](CN(C)S(C)(=O)=O)OCCCC[C@@H](C)O3)cc1 | inactive: 1 |
| C[C@H]1CN([C@@H](C)CO)C(=O)Cc2cc(NC(=O)C3CCCCC3)ccc2O[C@@H]1CN(C)C(=O)Nc1cccc2ccccc12 | inactive: 1.03 |
| Cc1ccccc1S(=O)(=O)N1C[C@@H](O)COC[C@@H]2O[C@@H](CC(=O)NCc3ccccc3Cl)CC[C@H]21 | inactive: 1.02 |
| CN(C)[C@@H]1C(=O)[C@@H](C(N)=O)C(=O)[C@@]2(O)C(=O)[C@H]3C(=O)c4c(O)ccc(Cl)c4[C@@H](O)[C@H]3C[C@@H]12 | active: 0.0324 |
| Cc1ccc(S(=O)(=O)N(C)C[C@@H]2Oc3c(NC(=O)Nc4cccc5ccccc45)cccc3C(=O)N([C@H](C)CO)C[C@@H]2C)cc1 | inactive: 1 |
| C[C@@H]1CCCCO[C@H](CN(C)C(=O)Nc2ccc(F)cc2)[C@@H](C)CN([C@H](C)CO)C(=O)c2cc(NC(=O)Nc3ccc(F)cc3)ccc2O1 | inactive: 1.03 |
| C[C@@H]1CCCCO[C@@H](CN(C)Cc2ccc(C(=O)O)cc2)[C@H](C)CN([C@H](C)CO)C(=O)c2cc(NC(=O)C3CCCCC3)ccc2O1 | inactive: 1.01 |
| COCC#Cc1ccc2c(c1)O[C@@H](CN(C)C(=O)c1ccccc1F)[C@@H](C)CN([C@H](C)CO)S2(=O)=O | inactive: 1.01 |
| Cc1noc(C)c1NC(=O)N(C)C[C@@H]1Oc2c(NC(=O)c3ccncc3)cccc2C(=O)N([C@H](C)CO)C[C@H]1C | inactive: 0.995 |
| COc1cccc(C#Cc2ccc3c(c2)O[C@@H](CN(C)C(=O)c2ccccn2)[C@H](C)CN([C@@H](C)CO)S3(=O)=O)c1 | inactive: 0.992 |
| COc1ccc(C#Cc2ccc3c(c2)O[C@H](CN(C)C(C)=O)[C@H](C)CN([C@@H](C)CO)S3(=O)=O)cc1 | inactive: 1.03 |
| C[C@H]1CN([C@@H](C)CO)C(=O)c2cccc(NC(=O)CCCCCC(=O)Nc3ccccc3N)c2O[C@@H]1CN(C)Cc1ccc(C(F)(F)F)cc1 | inactive: 1.01 |
| COc1ccc(S(=O)(=O)Nc2ccc3c(c2)C(=O)N([C@H](C)CO)C[C@@H](C)[C@@H](CN(C)C(=O)NC(C)C)O3)cc1 | inactive: 0.919 |
| COc1ccc([Si](C)(C)[C@@H]2[C@@H](CC(=O)N(CCO)Cc3ccccc3)O[C@]3(C(=O)N(Cc4cccc(N5CCC5=O)c4)c4ccccc43)[C@H]2C)cc1 | inactive: 1.02 |
| COc1ccc(NC(=O)N(C)C[C@H]2Oc3ncc(C#CC(C)C)cc3C(=O)N([C@@H](C)CO)C[C@@H]2C)cc1 | inactive: 1.02 |
| C[C@@H]1CN([C@@H](C)CO)C(=O)Cc2cc(NS(=O)(=O)c3cn(C)cn3)ccc2O[C@H]1CN(C)Cc1ccc(C(=O)Nc2ccccc2N)cc1 | inactive: 1 |

| SMILES | relative growth |
| --- | --- |
| CN1CCN(C(=O)c2nn(C)c3c2CCN(S(C)(=O)=O)C3)CC1 | inactive: 0.998 |
| CCCNC(=O)Nc1ccc2c(c1)OC[C@H](C)N(Cc1ccc(-c3ccccn3)cc1)C[C@@H](C)[C@@H](OC)CN(C)C2=O | inactive: 1.02 |
| O=C(C[C@H]1CC[C@@H](NC(=O)Cc2ccccn2)[C@H](CO)O1)NCCc1ccncc1 | inactive: 0.99 |
| CCCN(CCC)[NH2+][O-] | inactive: 1.01 |
| O=C(C[C@H]1NC(=O)NC1=O)NCc1[nH]nc2c1CCC2 | inactive: 0.973 |
| CN(C)CCCNC(=O)C[C@H]1CC[C@@H]2[C@H](COc3ccc(NC(=O)c4ccc5c(c4)OCO5)cc3C(=O)N2C)O1 | inactive: 0.994 |
| C[C@@H]1CN([C@H](C)CO)C(=O)c2cccc(NS(=O)(=O)c3ccccc3)c2O[C@H]1CN(C)Cc1ccc(-c2ccccc2)cc1 | inactive: 1.04 |
| Cc1noc(C)c1NC(=O)Nc1ccc2c(c1)C(=O)N([C@@H](C)CO)C[C@H](C)[C@H](CN(C)S(=O)(=O)c1cccs1)OCCCC[C@@H](C)O2 | inactive: 0.995 |
| COc1ccccc1-c1cnc2c(c1)C(=O)N([C@H](C)CO)C[C@H](C)[C@H](CN(C)C(=O)c1cccnc1)O2 | inactive: 0.993 |
| COc1ccc(NC(=O)N(C)C[C@@H]2OCCCC[C@@H](C)Oc3ccc(NS(=O)(=O)c4cccs4)cc3C(=O)N([C@H](C)CO)C[C@H]2C)cc1 | inactive: 1 |
| COc1ccc(S(=O)(=O)Nc2ccc3c(c2)CC(=O)N([C@H](C)CO)C[C@@H](C)[C@@H](CN(C)C)O3)cc1 | inactive: 0.987 |
| COc1ccc(CN(C)C[C@@H]2OCCCC[C@H](C)Oc3ccc(NC(=O)Nc4ccc5c(c4)OCO5)cc3C(=O)N([C@H](C)CO)C[C@@H]2C)cc1 | inactive: 0.974 |
| O=C(O)[C@H](O)c1ccccc1 | inactive: 1.01 |
| COc1cc(C(=O)NCc2ccc(OCCN(C)C)cc2)cc(OC)c1OC.Cl | inactive: 1.02 |
| CCOC(=O)N1C(=O)[C@@]2(CCCOC2)N(c2ccc(C)cc2)C1=S.CCOC(=O)N1C(=O)[C@]2(CCCOC2)N(c2ccc(C)cc2)C1=S | inactive: 1.02 |
| CCOC(=O)[C@H](CCc1ccccc1)N[C@@H](C)C(=O)N1C(=O)N(C)C[C@H]1C(=O)O | inactive: 1.02 |
| C[C@@H]1CCCCO[C@@H](CN(C)C(=O)Nc2ccccc2)[C@H](C)CN([C@H](C)CO)C(=O)c2cc(NC(=O)C3CCCCC3)ccc2O1 | inactive: 1.01 |
| C[C@H](CO)N1C[C@H](C)[C@@H](CN(C)Cc2ccncc2)Oc2ccc(NC(=O)Cn3cnnn3)cc2CC1=O | inactive: 1 |
| COCC#Cc1ccc2c(c1)O[C@H](CN(C)Cc1ccccc1F)[C@H](C)CN([C@H](C)CO)S2(=O)=O | inactive: 1.02 |
